Here are results for one molecule from article PMC7660914 (Microbiology, 2020).

The test addresses T1, H6 flagella (polymeric FliC flagellin) of E. coli O127:H6 (E. coli O127:H6, UniProt B7USU2 1-548).
T1 sequence: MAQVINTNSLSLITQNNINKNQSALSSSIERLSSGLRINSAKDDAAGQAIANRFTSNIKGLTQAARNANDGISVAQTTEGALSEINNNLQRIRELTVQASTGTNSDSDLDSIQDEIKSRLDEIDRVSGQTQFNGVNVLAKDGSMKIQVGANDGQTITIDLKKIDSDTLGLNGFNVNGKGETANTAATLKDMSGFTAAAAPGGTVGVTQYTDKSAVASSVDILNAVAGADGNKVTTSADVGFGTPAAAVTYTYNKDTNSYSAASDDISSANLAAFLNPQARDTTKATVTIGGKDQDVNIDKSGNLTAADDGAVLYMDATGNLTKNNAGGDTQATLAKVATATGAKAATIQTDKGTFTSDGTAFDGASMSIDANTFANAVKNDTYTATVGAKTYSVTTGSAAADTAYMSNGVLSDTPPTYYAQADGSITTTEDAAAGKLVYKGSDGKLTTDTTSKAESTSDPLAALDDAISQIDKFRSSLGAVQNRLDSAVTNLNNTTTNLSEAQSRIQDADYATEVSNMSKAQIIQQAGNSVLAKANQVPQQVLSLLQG
The test is described as follows: ELISA. The following applies: both partners purified.

B1: recombinant human cofilin-1 (natural protein)
chain: not shown
notes: also called CFL1; CFL
Regarding B1, the binding result is recorded as “binds”.
